Experimental data: PubChem BioAssay AID1030 (National Center for Advancing Translational Sciences (NCATS), 2008)
Among all 220,000 compounds or so, about 16,000 (7.3%) were called active. Inconclusive means that the source gave no clear call. Such entries were picked first, then a sample of the others. Calls follow the shape of the dose curve; as a rule, active = well fitted inhibition curve with a large enough effect (not every such curve was filed as active); inconclusive = small, poorly fitted or top-dose-only effect, or another doubt; inactive = no such curve, though single readings can be large or run the other way. No potency is given beside an inconclusive call; the fits are too rough.

molecular target: Aldehyde dehydrogenase 1A1 (Homo sapiens) (UniProt P00352); experiment: qHTS Assay for Inhibitors of Aldehyde Dehydrogenase 1 (ALDH1A1); conditions: Purified ALDH1A1, NADH fluorescence, propionaldehyde substrate; series mostly up to 75.3 µM;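 as to activity, negative = inhibition: plate controls were no enzyme wells and a reference inhibitor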
Chain of UniProt P00352 (P00352 whole entry, looked up): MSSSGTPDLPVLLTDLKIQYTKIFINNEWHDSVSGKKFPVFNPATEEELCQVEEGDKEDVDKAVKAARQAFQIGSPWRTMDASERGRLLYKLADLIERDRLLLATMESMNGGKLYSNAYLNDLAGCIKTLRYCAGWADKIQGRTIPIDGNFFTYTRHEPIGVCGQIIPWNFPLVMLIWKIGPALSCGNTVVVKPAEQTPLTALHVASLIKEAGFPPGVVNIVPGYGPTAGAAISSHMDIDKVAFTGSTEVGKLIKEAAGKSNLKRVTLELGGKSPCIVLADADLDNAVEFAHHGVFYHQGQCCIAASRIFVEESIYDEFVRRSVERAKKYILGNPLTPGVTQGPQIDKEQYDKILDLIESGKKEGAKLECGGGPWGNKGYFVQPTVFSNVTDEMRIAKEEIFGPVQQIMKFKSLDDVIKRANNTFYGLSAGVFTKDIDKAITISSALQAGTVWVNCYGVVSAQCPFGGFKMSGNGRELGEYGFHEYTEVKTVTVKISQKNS
Potency is read from the fitted curve at half-maximal effect; tags tell the direction and shape of the fitted curve.

Structure (SMILES)	Potency	activity, negative = inhibition
COc1cccc(CN2CCN(c3cccc(C(F)(F)F)c3)CC2)c1OC	inactive	–
C=CCn1c(=S)[nH]c2scc(-c3cccs3)c2c1=O	active: 12.6 µM	–
CCOc1ccc(/C=N/Nc2nncc(-c3ccccc3)n2)cc1OC	inactive	–
CCOc1c2ccc(C(=O)NCCc3ccc(C)cc3)cc2nn1CC	inconclusive [inhibitor, partial curve]	–
CCOc1cccc(CN2CCN(Cc3ccc(C)o3)C(CCO)C2)c1O (stereo unspecified)	inconclusive [inhibitor, single point]	–
N=c1oc2ccccc2cc1-c1nc2ccccc2c(=O)[nH]1	inconclusive [inhibitor, partial curve]	–
CCOc1cc(/C=N/O)cc(Br)c1OC	inactive	–
O=C(NCCN1CCOCC1)c1cc(-c2ccc(Cl)cc2)on1	inactive	–
CCOc1ccc(C2C(=O)N(C3CCCCC3)CC(=O)N2CC2CCCO2)cc1OC (stereo unspecified)	inconclusive [inhibitor, single point]	–
CC1CC(C)CN(CCCNC(=O)Cc2c(C(=O)O)[nH]c3ccccc23)C1 (stereo unspecified)	inconclusive [inhibitor, single point]	–
CCN1CCN(CCNC(=O)CCCCCn2c(=O)[nH]c3cc(C(=O)OC)ccc3c2=O)CC1	inconclusive [inhibitor, single point]	–
Cc1ccc(Sc2c(C)nn(C(=O)c3cccc(S(=O)(=O)N4CCOCC4)c3)c2C)cc1	inconclusive [inhibitor, single point]	–
Cc1ccnc(NC(=O)CCC(=O)N(CC(=O)NC2CCCCC2)Cc2cccs2)c1	inactive	–
C=CCn1c(SCc2ccc(C(=O)OC)cc2)nnc1-c1sc(N)nc1C	inconclusive [inhibitor, single point]	–
COc1ccc(OC)c(NC(=O)Cn2c(CCC(=O)O)ccc2-c2cccs2)c1	inconclusive [inhibitor, single point]	–
Cc1nc(CNC(=O)CC2C(=O)NCCN2Cc2cccc(Oc3ccccc3)c2)cs1 (stereo unspecified)	inconclusive [inhibitor, single point]	–
[O-]/C(=C(\C(=S)Nc1cccc2ccccc12)[n+]1cccc(CO)c1)c1ccc(Cl)s1	active: 12.6 µM	–
CCCCCC(=O)N(CN1C(=O)CCC1=O)c1ccccc1	inactive	–
Cc1ccc(-c2nn(-c3ccccc3)cc2C(=O)NN2CCN(C)CC2)cc1	inactive	–
O=S(=O)(NCCCCCCc1ccccc1)c1cccc2c(Cl)cccc12	inconclusive [inhibitor, single point]	–
O=C(Nc1ccccc1)c1ccc(S(=O)(=O)NCC2CCCO2)cc1 (stereo unspecified)	inconclusive [inhibitor, partial curve]	–
O=C(Nc1ccccc1)Nc1cccc(-c2cn3cccnc3n2)c1	inconclusive [inhibitor, single point]	–
COc1ccc(N2C(=O)C(O)C2c2ccc(C)cc2)cc1 (stereo unspecified)	inactive	–

Structure (SMILES)	Potency	activity, negative = inhibition
CCSc1nnc(NC(=O)CSc2nnc(CNC(=O)c3ccc(OC)c(OC)c3)o2)s1	inconclusive [inhibitor, single point]	–
O=C(Cc1coc(-c2ccc(F)cc2)n1)N1CCOCC1	inactive	–
Cc1ccc([N+](=O)[O-])c(OCCN2CCNCC2)c1	inconclusive [inhibitor, partial curve]	–
CC(C)C[C@@H](CC(=O)N[C@@H](CCCN)CC(=O)N[C@@H]1CCCC[C@H]1C(=O)N[C@H](CC(=O)N[C@@H](CCC(=O)O)CC(=O)O)CC(C)C)NC(=O)[C@@H]1CNCC[C@H]1N	inconclusive [inhibitor, single point]	–
COc1ccccc1Nc1nc(N)nc(CSC(=S)N2CCCCC2C)n1 (stereo unspecified)	inconclusive [inhibitor, single point]	–
Cc1ccc(NC(=O)COC(=O)CCC(=O)c2cccs2)cc1C	inconclusive [inhibitor, single point]	–
COc1cc(/C=N/NC(=O)COc2ccccc2[N+](=O)[O-])ccc1OC(=O)c1ccco1	inconclusive [inhibitor, single point]	–
Cc1cc(-c2ccco2)n(-c2ccccc2)n1	active: 1.41 µM	–
O=C(CSc1nnc(-c2cccs2)n1-c1ccccc1)NCc1ccco1	inactive	–
c1ccc(C2Nc3ccccc3-c3nc4ccccc4n32)nc1 (stereo unspecified)	inconclusive [inhibitor, partial curve]	–
CC1=N/C(=C\c2ccc([N+](=O)[O-])cc2)C(=O)N1c1cc(Cl)ccc1C	active: 11.2 µM	–
CCOC(=O)c1ccc(NS(=O)(=O)CC)cc1	inactive	–
CCCn1c(O)c(N=Nc2ccc3ccccc3n2)c2ccccc21	inactive	–
N#Cc1c(-c2ccccc2)cc(C2CC2)nc1SCC(=O)O	inconclusive [inhibitor, single point]	–
COc1ccc(C(=O)N2CCC3(CCCN(Cc4ccccc4)C3)CC2)cc1	inactive	–
CCc1nc(N2CCN(C(=O)c3ccccc3)CC2)c2c3c(sc2n1)CCCC3	inconclusive [inhibitor, partial curve]	–
CC(=O)Nc1c(O)nc(SCC(=O)Nc2nnc(SCc3ccccc3)s2)[nH]c1=O	inconclusive [inhibitor, single point]	–
O=C1c2cccc(OCC(=O)N3CCCc4ccccc43)c2CCN1Cc1ccccc1	inactive	–
C=CCN(C(=O)CSc1nc2c(sc3ccccc32)c(=O)n1CCN(CC)CC)c1ccccc1	inconclusive [inhibitor, partial curve]	–
COc1ccc(C(=O)N2CCC(N3CCN(c4ccccc4)CC3)CC2)cc1OC	inconclusive [inhibitor, partial curve, poor fit]	–
CCOc1ccc(-n2c(C)c(C(C)=O)c(C(C)=O)c2C)cc1	active: 22.4 µM	–
CCCC(c1cc(C(C)(C)C)c(O)cc1C)c1cc(C(C)(C)C)c(O)cc1C	–	inactive: 7.3% [at 13.5 µM]
CCOC(=O)c1ccc(N=C2S/C(=C\c3cc(C)n(-c4cccnc4)c3C)C(=O)N2C)cc1	inconclusive [inhibitor, single point]	–
